# Test results from the supplement of paper PMC7335073.
# Over roughly 4,100 sequences, “relative CpG methylation activity (normalised to average over all NNNCGNNN flanks)” has its median near 0.94; the highest 2% begin near 1.9. Some of the results follow.
# Target: DNMT3B catalytic domain (mouse) (UniProt O88509)
# Assay: relative CpG methylation activity (normalised to average over all NNNCGNNN flanks) (relative (1 = mean)); higher = more methylation of the central CpG
# Conditions: system: in vitro, murine catalytic domain; CpG state: hemimethylated substrate pool; residues: 558-859
# Experimental: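 Deep enzymology: a pool of dsDNA substrates with a central CpG flanked by 10 random nucleotides on each side was methylated by the murine DNMT3A or DNMT3B catalytic domain (0.8 mM SAM, 37 °C, 60 min). Methylation was then read out by hairpin ligation, bisulfite conversion and NGS. Values are the average methylation of each NNNCGNNN context (±3 flanks; the outer flanks are random and averaged over), normalised to the overall mean, so 1 = average activity.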
# Sequence of UniProt O88509 (O88509 558-859): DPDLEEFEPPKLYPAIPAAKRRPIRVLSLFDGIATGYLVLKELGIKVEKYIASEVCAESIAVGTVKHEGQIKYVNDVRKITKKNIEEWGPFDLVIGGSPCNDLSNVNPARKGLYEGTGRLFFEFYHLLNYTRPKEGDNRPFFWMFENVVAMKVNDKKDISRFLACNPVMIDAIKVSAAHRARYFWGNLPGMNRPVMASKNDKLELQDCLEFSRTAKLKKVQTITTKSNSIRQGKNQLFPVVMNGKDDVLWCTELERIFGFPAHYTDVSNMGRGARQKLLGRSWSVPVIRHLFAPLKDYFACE
row,Sequence,relative CpG methylation activity
1,TGCCGCCG,0.486
2,ACTCGCTG,0.495
3,TCCCGTGT,0.497
4,GAGCGCAC,0.496
5,TGCCGCCA,0.429
6,GAGCGACA,0.656
7,GCCCGCCC,0.94
8,CCCCGTCG,0.883
9,TCGCGATT,0.953
10,TACCGCGG,0.374
11,AACCGCAA,0.243
12,ACACGGCG,1.6
13,ACCCGGAT,0.954
14,ACGCGTAA,0.539
15,TAGCGATG,0.904
16,AGTCGTCA,0.379
17,GAGCGGTC,1.08
18,GATCGTAC,0.775
19,CGTCGAAA,1.21
20,GGCCGAAC,1.09
21,TGGCGATA,0.923
22,CGGCGGGA,0.773
23,ATACGCCA,1.68
24,CTTCGTAG,0.575
25,GTTCGCGA,0.579

row,Sequence,relative CpG methylation activity
1,TTACGGCA,2.04
2,CTTCGATA,1.56
3,ACCCGGAG,0.708
4,TGGCGCGC,0.299
5,TACCGATC,1.57
6,GTCCGCGT,0.627
7,CGTCGCAG,0.295
8,CCCCGACC,1.46
9,TCCCGGAT,0.938
10,ACACGCCA,1.38
11,GTGCGTTC,1.33
12,GTTCGCCA,0.862
13,GCCCGCAA,0.477
14,GTTCGCTG,0.827
15,GGACGCTC,1.29
16,CCGCGACG,0.924
17,CATCGCCT,1.01
18,TGGCGAGC,1.13
19,CTTCGAGT,1.28
20,TGACGTAG,0.75
21,GCTCGCCG,0.812
22,ATGCGATT,1.22
23,GACCGATG,0.987
24,GTGCGTTA,0.511
25,GGTCGAGG,0.969

row,Sequence,relative CpG methylation activity
1,CTGCGCAA,0.612
2,CCACGTTT,0.776
3,GTCCGAGT,1.37
4,TAACGCCA,1.46
5,AAGCGTGC,0.448
6,AATCGCTT,0.892
7,TTTCGCGT,1.32
8,CGACGCAC,0.749
9,ATCCGCGA,0.41
10,GGACGGGT,1.07
11,GCACGACT,1.07
12,AGTCGACA,1.24
13,CCTCGAAA,1.47
14,CGACGTGC,0.674
15,GCCCGTTT,0.456
16,TAACGCGG,1.19
17,CGTCGATC,1.7
18,TGTCGCTG,0.877
19,TTTCGGTA,1.42
20,GTGCGAGC,1.52
21,GCTCGTAT,0.509
22,TCACGTAC,1.23
23,GCTCGCTA,0.724
24,AGGCGTAC,0.539
25,ACCCGAAT,1.08

row,Sequence,relative CpG methylation activity
1,GTACGGCC,1.9
2,ATCCGCAC,0.969
3,AGACGCAT,0.54
4,CGGCGGCC,1.11
5,AATCGGCT,1.84
6,GTACGTCA,1.19
7,CAACGCTC,1.57
8,ATTCGCGT,0.583
9,CTGCGAGT,0.957
10,AGTCGTAG,0.146
11,AGGCGAAG,0.363
12,CAGCGCGT,0.413
13,GCGCGGGA,0.853
14,CTACGACG,1.81
15,ATCCGTGG,0.29
16,AGGCGACA,0.553
17,GACCGATT,1.22
18,TTGCGCCC,1.54
19,TACCGCAT,0.389
20,CGACGGTT,0.817
21,AGTCGTGC,0.61
22,GGCCGTAC,0.571
23,ACCCGAAA,1.46
24,TACCGTTG,0.259
25,CGTCGCAT,0.29

row,Sequence,relative CpG methylation activity
1,GATCGAAC,1.16
2,TAGCGTCC,0.858
3,CTCCGCTG,0.983
4,GATCGGTA,0.838
5,CGTCGCTT,0.865
6,CGCCGATC,1.4
7,GGACGTGG,0.332
8,GACCGCAA,0.281
9,AGCCGAAC,0.991
10,TCGCGTGG,0.463
11,CGTCGAAG,0.894
12,TCCCGAAG,1.34
13,GAACGGGA,1.45
14,TCCCGGCC,1.6
15,GGTCGCAC,0.424
16,CCACGGAA,1.15
17,TATCGTCC,1.22
18,CTTCGGTA,1.51
19,TCGCGCGG,0.653
20,CTTCGCTA,1.18
21,TAGCGGAG,0.361
22,AGGCGTGC,0.175
23,ACCCGTTT,0.295
24,CGGCGTGC,0.326
25,TGCCGATA,1.1

row,Sequence,relative CpG methylation activity
1,AAGCGGCG,1.07
2,CGACGAGA,1.66
3,TCACGAAC,1.67
4,TGACGTTA,0.471
5,TTGCGATG,1.14
6,GCGCGACG,0.694
7,CTCCGCGA,0.802
8,TCGCGGGA,0.949
9,CATCGTAT,0.559
10,AAACGTGG,0.407
11,CTTCGATG,1.33
12,ACACGCAG,0.625
13,CGGCGTAA,0.402
14,TTCCGCGT,0.841
15,TGTCGTAT,0.243
16,GGACGGTA,0.923
17,CCGCGGCT,1.14
18,ATCCGACG,1.08
19,AGTCGATA,1.57
20,GACCGCGG,0.193
21,GTGCGCCA,0.939
22,CGACGTTC,0.699
23,AAACGAAG,1.18
24,GGGCGCTC,0.566
25,ATACGCTA,1.58

row,Sequence,relative CpG methylation activity
1,AGACGGAG,0.717
2,TTTCGCTT,1.17
3,TAACGAAA,1.59
4,TTACGACC,1.87
5,GAGCGATA,1.19
6,AGTCGTTA,0.494
7,AGACGTCT,0.991
8,AAGCGGGG,0.684
9,TGCCGGCC,1.1
10,GAACGATA,1.64
11,CACCGCCA,0.643
12,TCTCGGGC,1.69
13,CACCGAAG,1.01
14,GGGCGCAA,0.152
15,CAACGACA,1.5
16,CGCCGTGG,0.193
17,TGGCGACC,0.554
18,AACCGACG,0.752
19,ATCCGGGC,1.58
20,GTTCGATA,1.46
21,TAGCGCCG,0.742
22,CTGCGCCG,1.15
23,CTCCGGCG,1.54
24,GAGCGGTG,0.965
25,AACCGGAT,0.519

row,Sequence,relative CpG methylation activity
1,TGTCGTAG,0.188
2,GAACGGTT,1.22
3,TGTCGCCG,0.691
4,CGACGATG,1.12
5,GAACGCAA,0.648
6,ACTCGTTC,0.665
7,TGTCGAGG,1.06
8,GTGCGTGA,0.626
9,ATGCGGGA,1.08
10,TCTCGTCT,0.777
11,GTGCGGTG,0.853
12,TATCGTCT,0.897
13,TAACGACG,1.39
14,TGCCGTGA,0.229
15,GTTCGAGT,1.31
16,AACCGCTC,0.489
17,TTGCGAGC,1.43
18,CAGCGCGG,0.606
19,GGACGGGC,1.41
20,CGACGGAG,0.643
21,CACCGGTG,1.14
22,GCACGCGT,0.853
23,TAGCGACG,0.563
24,CGCCGAGG,0.682
25,TGACGTCC,0.963

row,Sequence,relative CpG methylation activity
1,TTGCGCGA,0.688
2,GGACGCCA,1.01
3,TACCGAAA,1.07
4,GTACGTTC,1.34
5,AGTCGGCA,2.11
6,AGGCGGAG,0.295
7,GGACGCCT,1.12
8,AATCGCTG,0.538
9,GAACGGGG,1.23
10,GATCGCTC,0.935
11,TAGCGTCA,0.661
12,GGACGGCT,1.51
13,CGGCGTCT,0.355
14,TAACGGCG,1.78
15,CATCGACA,1.44
16,TCTCGGCC,1.96
17,CATCGAGA,1.77
18,AACCGCCA,0.429
19,CTGCGGCA,1.47
20,TGTCGTAC,0.896
21,TGGCGCGA,0.134
22,TCACGCCT,1.3
23,TTCCGACG,1.57
24,GCACGTAT,0.715
25,CCCCGTAC,1.2

row,Sequence,relative CpG methylation activity
1,GCCCGTCT,0.685
2,GAACGATG,1.17
3,AGTCGATT,1.68
4,ACACGAAA,1.47
5,TCACGGTG,0.823
6,GTGCGAAA,1.05
7,CTGCGAAA,1.32
8,AACCGTGC,0.377
9,GGGCGGAG,0.141
10,AAGCGCAA,0.301
11,AGACGACT,1.28
12,TCGCGGAC,0.818
13,GTACGAAG,1.57
14,GACCGATA,1.4
15,CGACGCAT,0.454
16,GAACGGCG,1.53
17,GGCCGCAA,0.15
18,GCGCGGTA,0.743
19,TTGCGAAT,0.984
20,CCACGTGA,0.579
21,GTCCGTCC,1.22
22,TATCGCAG,0.473
23,CTACGAAG,1.6
24,GGACGCGG,0.51
25,GACCGTAT,0.195

row,Sequence,relative CpG methylation activity
1,CCACGTGT,0.602
2,AGACGGGG,1.39
3,GAGCGATC,1.19
4,AAGCGCGA,0.317
5,TTGCGTTA,0.783
6,TTTCGCCC,1.24
7,TGGCGCGG,0.275
8,GCCCGGTG,0.787
9,TGACGCTT,0.78
10,GGCCGGGT,0.602
11,AAACGTTG,0.803
12,ACCCGCCC,0.915
13,GTTCGAAT,1.18
14,CGGCGCTG,0.263
15,AGGCGCTG,0.492
16,TCACGCTT,1.36
17,CGCCGGTG,0.818
18,GGTCGTTT,0.417
19,ACCCGTCA,0.703
20,GGGCGACC,0.686
21,TCGCGACT,0.892
22,GCCCGTCA,0.497
23,CAGCGCGC,0.727
24,GGGCGATT,0.992
25,TTGCGGAT,0.852

row,Sequence,relative CpG methylation activity
1,TCTCGAAA,1.17
2,AGTCGCGG,0.566
3,AGGCGTAG,0.21
4,GTCCGCAC,0.958
5,GCCCGTGC,0.63
6,CTCCGTGT,0.492
7,CCCCGCAA,0.568
8,GGCCGCCT,0.503
9,CCTCGCCC,0.848
10,AAGCGGGA,0.688
11,CACCGAGA,1.58
12,CCACGAAT,1.3
13,AACCGCAC,0.398
14,GCCCGCCA,0.601
15,ACCCGCAT,0.431
16,CCTCGGTG,1.04
17,TACCGAGT,1.32
18,GGACGGAC,1.09
19,CGCCGCTA,0.437
20,TTACGTCT,1.64
21,TGTCGAAG,1.15
22,GGACGTGC,0.639
23,CCTCGCAG,0.493
24,TCCCGATG,1.39
25,CCGCGGGC,1.53

row,Sequence,relative CpG methylation activity
1,CCACGACT,1.36
2,GCCCGGAT,0.786
3,CTCCGTCG,0.982
4,GAGCGATT,0.905
5,GGACGCAA,0.45
6,GGGCGTTG,0.169
7,ATGCGTCC,1.33
8,AGACGATC,1.75
9,CTGCGTTC,1.2
10,TAACGTAG,0.754
11,CACCGACT,1.12
12,CCCCGGGA,1.45
13,CCTCGTCC,1.07
14,TGACGGGT,1.07
15,TAACGACC,1.66
16,TAGCGCAT,0.387
17,TGTCGACG,0.902
18,GACCGAGG,1.05
19,AAGCGAAA,0.997
20,CGGCGATG,0.694
21,TGGCGCCG,0.638
22,AACCGGCC,1.1
23,TAACGTCA,1.32
24,AGCCGCCT,0.423
25,TGACGCTG,0.83

row,Sequence,relative CpG methylation activity
1,GGACGGAA,0.833
2,CCTCGTAC,1.16
3,GAACGCCT,1.17
4,CGTCGATG,1.16
5,GTCCGTAT,0.661
6,TACCGATG,1.21
7,AGACGCCT,1.24
8,GCACGTCG,1.05
9,CGTCGGAG,0.42
10,GGGCGCCC,0.511
11,GAACGTGA,0.599
12,AACCGACC,0.818
13,CAACGCAG,0.792
14,AGACGTTC,0.768
15,ATGCGCCA,0.894
16,GACCGCAC,0.494
17,TAACGGGA,1.5
18,CATCGTAA,0.366
19,TACCGGCG,1.39
